Data from paper PMC4931317, “UtpA and UtpB chaperone nascent pre-ribosomal RNA and U3 snoRNA to initiate eukaryotic ribosome assembly” (Nature Communications, 2016).
No constants are given. Whether binding was seen depends on the method and setting. Some results given as binding are weak or reduced against the parent protein; the word gives no strength. For part of these data: Where a sequence is shown, tags or fusion partners need not be part of it.

Tests used:
[1] = target: T1, His14-3C-Utp12 (recombinant) (S. cerevisiae) (UniProt Q12220); test: SEC; Utp12/Utp13/StrepII-Sumo-Utp21/Utp1 co-expressed in E. coli and purified by the His14 tag on Utp12; main peak fraction of the size-exclusion run; 50 mM HEPES-NaOH pH 7.6, 300 mM NaCl; both purified
T1 sequence: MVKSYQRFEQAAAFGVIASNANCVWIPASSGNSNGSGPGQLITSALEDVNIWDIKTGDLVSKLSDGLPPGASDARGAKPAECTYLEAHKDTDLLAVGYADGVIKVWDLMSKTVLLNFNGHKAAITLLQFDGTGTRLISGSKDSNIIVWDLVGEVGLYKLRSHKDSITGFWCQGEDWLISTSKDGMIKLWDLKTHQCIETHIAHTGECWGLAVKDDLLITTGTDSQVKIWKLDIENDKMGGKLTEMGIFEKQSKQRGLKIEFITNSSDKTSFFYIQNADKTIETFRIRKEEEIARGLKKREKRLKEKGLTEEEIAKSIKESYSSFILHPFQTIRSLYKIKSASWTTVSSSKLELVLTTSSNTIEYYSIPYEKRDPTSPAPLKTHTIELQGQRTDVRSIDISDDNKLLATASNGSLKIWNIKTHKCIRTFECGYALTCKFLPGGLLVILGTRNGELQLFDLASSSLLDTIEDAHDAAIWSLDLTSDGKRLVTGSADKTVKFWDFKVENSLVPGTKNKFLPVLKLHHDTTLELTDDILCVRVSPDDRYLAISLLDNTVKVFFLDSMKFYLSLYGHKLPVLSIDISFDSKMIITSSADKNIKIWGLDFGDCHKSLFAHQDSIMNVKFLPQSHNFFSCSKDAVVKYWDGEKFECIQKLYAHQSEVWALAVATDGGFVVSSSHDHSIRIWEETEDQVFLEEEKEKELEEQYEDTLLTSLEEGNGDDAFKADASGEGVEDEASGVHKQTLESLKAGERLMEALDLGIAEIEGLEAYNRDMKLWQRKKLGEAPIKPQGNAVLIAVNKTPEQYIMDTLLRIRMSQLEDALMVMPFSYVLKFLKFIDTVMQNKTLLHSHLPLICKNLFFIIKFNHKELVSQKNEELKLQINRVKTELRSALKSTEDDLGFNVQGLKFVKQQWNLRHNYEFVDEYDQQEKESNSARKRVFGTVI

[2] = target: T1, His14-3C-Utp12 (recombinant) (S. cerevisiae); test: cross-linking; DSS (0.2, 0.4 and 0.8 mM, H12/D12) cross-linking of SEC-purified recombinant UtpBΔUtp6ΔUtp18, 0.2 mg/ml, room temperature, 30 min, 50 mM HEPES-NaOH pH 7.7, 300 mM NaCl, 1 mM EDTA; cross-linked peptides found by mass spectrometry (pLink); both purified
[3] = target: T2, Utp13 (recombinant) (S. cerevisiae) (UniProt Q05946); test: as above
T2 sequence: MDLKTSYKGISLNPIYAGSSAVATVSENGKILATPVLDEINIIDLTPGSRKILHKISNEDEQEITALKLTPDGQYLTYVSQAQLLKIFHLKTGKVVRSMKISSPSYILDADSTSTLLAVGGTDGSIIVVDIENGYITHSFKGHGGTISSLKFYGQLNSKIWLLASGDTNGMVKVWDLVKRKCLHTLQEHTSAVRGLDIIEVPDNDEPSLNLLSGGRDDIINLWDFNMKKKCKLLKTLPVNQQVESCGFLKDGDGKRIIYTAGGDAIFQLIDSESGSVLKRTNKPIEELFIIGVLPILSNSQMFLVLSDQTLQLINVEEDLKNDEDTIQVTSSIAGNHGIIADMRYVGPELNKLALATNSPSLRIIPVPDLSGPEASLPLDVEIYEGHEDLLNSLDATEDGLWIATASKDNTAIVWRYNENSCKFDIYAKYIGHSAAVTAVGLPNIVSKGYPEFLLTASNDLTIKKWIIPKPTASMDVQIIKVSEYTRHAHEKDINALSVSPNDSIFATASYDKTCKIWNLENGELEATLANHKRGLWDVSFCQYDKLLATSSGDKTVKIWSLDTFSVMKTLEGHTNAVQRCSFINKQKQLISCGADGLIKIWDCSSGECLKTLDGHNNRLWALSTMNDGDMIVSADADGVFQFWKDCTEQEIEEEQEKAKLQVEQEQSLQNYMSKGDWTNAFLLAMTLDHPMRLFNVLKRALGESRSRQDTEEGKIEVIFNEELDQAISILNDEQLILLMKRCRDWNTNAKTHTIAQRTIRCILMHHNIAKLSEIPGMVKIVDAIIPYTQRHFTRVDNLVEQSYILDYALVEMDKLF

Measured: binding

B1: StrepII-Sumo-Utp21 (recombinant) (protein, UniProt Q06078 1-939)
chain: MSIDLKKRKVEEDVRSRGKNSKIFSPFRIIGNVSNGVPFATGTLGSTFYIVTCVGKTFQIYDANTLHLLFVSEKETPSSIVALSAHFHYVYAAYENKVGIYKRGIEEHLLELETDANVEHLCIFGDYLCASTDDNSIFIYKKSDPQDKYPSEFYTKLTVTEIQGGEIVSLQHLATYLNKLTVVTKSNVLLFNVRTGKLVFTSNEFPDQITTAEPAPVLDIIALGTVTGEVIMFNMRKGKRIRTIKIPQSRISSLSFRTDGSSHLSVGTSSGDLIFYDLDRRSRIHVLKNIHRESYGGVTQATFLNGQPIIVTSGGDNSLKEYVFDPSLSQGSGDVVVQPPRYLRSRGGHSQPPSYIAFADSQSHFMLSASKDRSLWSFSLRKDAQSQEMSQRLHKKQDGGRVGGSTIKSKFPEIVALAIENARIGEWENIITAHKDEKFARTWDMRNKRVGRWTFDTTDDGFVKSVAMSQCGNFGFIGSSNGSITIYNMQSGILRKKYKLHKRAVTGISLDGMNRKMVSCGLDGIVGFYDFNKSTLLGKLKLDAPITAMVYHRSSDLFALALDDLSIVVIDAVTQRVVRQLWGHSNRITAFDFSPEGRWIVSASLDSTIRTWDLPTGGCIDGIIVDNVATNVKFSPNGDLLATTHVTGNGICIWTNRAQFKTVSTRTIDESEFARMALPSTSVRGNDSMLSGALESNGGEDLNDIDFNTYTSLEQIDKELLTLSIGPRSKMNTLLHLDVIRKRSKPKEAPKKSEKLPFFLQLSGEKVGDEASVREGIAHETPEEIHRRDQEAQKKLDAEEQMNKFKVTGRLGFESHFTKQLREGSQSKDYSSLLATLINFSPAAVDLEIRSLNSFEPFDEIVWFIDALTQGLKSNKNFELYETFMSLLFKAHGDVIHANNKNQDIASALQNWEDVHKKEDRLDDLVKFCMGVAAFVTTA
binds: all assays above
